Assay results from PubChem BioAssay AID588591 (National Center for Advancing Translational Sciences (NCATS), 2011).
The whole screen tested about 390,000 compounds, of which about 4,700 (1.2%) were called active. The shares of active, inactive and inconclusive entries below differ from those in the screen. Calls come from the whole dose curve; as a rule, active = well fitted inhibition curve with a large enough effect; inconclusive = small, poorly fitted or top-dose-only effect, or another doubt; inactive = no such curve, though single readings can be large or run the other way. Where the call is inconclusive, the potency comes from a doubtful curve fit.

molecular target: DNA polymerase eta (Homo sapiens) (UniProt Q9Y253); assay: qHTS for Inhibitors of Polymerase Eta; conditions: recombinant Pol eta, fluorescent DNA replication assay; series mostly up to 114 µM; activity change, negative = inhibition: at the top concentration
In short: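 Pol eta (10 nM) was preincubated with compounds for 15 min at room temperature, after which fluorescent replication substrate (50 nM final) was added to start the reaction. Fluorescence was read kinetically at 0 and 10 min.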
% is set by controls: 0 for no effect and ±100 for the full control effect; potency is the fitted concentration of half-maximal effect; tags give direction and shape of the fitted curve.

UniProt Q9Y253, sequence (Q9Y253 whole entry, looked up): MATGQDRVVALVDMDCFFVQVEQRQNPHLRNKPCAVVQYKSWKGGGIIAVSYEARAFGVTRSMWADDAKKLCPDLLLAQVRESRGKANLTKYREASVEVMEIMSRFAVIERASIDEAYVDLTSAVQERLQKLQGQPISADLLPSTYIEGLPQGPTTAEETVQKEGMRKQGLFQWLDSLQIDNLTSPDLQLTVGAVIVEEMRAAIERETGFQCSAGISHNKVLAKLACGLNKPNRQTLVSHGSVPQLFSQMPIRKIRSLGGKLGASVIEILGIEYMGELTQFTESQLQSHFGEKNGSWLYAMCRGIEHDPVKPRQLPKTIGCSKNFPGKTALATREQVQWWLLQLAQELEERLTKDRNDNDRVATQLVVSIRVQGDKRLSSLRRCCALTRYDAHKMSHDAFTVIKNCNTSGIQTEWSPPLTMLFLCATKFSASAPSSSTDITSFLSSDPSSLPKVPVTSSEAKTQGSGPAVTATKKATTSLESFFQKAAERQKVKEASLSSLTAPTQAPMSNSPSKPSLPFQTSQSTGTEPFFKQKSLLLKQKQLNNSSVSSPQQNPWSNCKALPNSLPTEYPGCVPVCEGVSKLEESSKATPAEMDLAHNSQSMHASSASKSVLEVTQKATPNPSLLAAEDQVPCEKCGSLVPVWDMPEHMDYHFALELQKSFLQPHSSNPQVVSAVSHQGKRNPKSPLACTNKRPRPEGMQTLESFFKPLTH

SMILES	activity change, negative = inhibition	Potency
Cc1ccc(N=C2NC(=O)CS2)cc1	inactive: 9.92%	–
O=C(O)c1cccc(S(=O)(=O)Nc2ccc(O)cc2Sc2nc3ccccc3s2)c1	–	inconclusive: 25.1 µM [inhibitor, single point]
Cc1cccc(NC(=O)c2nc[nH]c2C(=O)N[C@@H](Cc2ccccc2)C(=O)OC(C)(C)C)c1	–	inconclusive: 35.5 µM [inhibitor, partial curve, poor fit]
CC(Sc1nc(=O)cc(N)n1CCc1ccccc1)C(=O)Nc1ccccc1C#N (configuration not stated)	inactive: 2.35%	–
O=C(O)c1cc(S(=O)(=O)NCc2ccco2)c(Cl)cc1Cl	–	inconclusive: 22.4 µM [inhibitor, single point]
O=c1c(Cl)c(Cl)cnn1Cc1nnc(-c2ccc(Cl)cc2)o1	–	active: 50.1 µM
O=c1cc(CSc2n[nH]c(-c3ccccc3)n2)[nH]c2ccccc12	inactive: -5.82%	–
NC(=O)[C@@H]1CC2(CC(c3cccc(NC(=O)[C@H]4CCC(=O)N4)c3)=NO2)CN1C(=O)c1ccc(Cl)cc1 (some centres not stated)	inactive: -14.1%	–
CCc1cccc(NC(=O)Cn2nc(-c3cc(C)ccc3C)ccc2=O)c1	–	inconclusive: 39.8 µM [inhibitor, partial curve, poor fit]
CC(=O)Nc1ccc(NC(=O)C(C)OC(=O)/C(C#N)=C/c2ccc(N(C)C)cc2)cc1 (configuration not stated)	–	inconclusive: 56.2 µM [inhibitor, partial curve, poor fit]
Cc1ccc(C)c(Cn2c(=O)n(CCCC(=O)NCCc3ccc(Cl)cc3)c(=O)c3ccccc32)c1	inactive: 1.87%	–
O=C(COc1cccc2ccccc12)Nc1ccc(Cl)cc1C(=O)O	–	inconclusive: 89.1 µM [inhibitor, partial curve, poor fit]
O=C(/C=C/c1ccco1)Nc1sc2c(c1C(=O)O)CCC2	–	active: 79.4 µM
CC1CCN(C2=NN3C(=N)/C(=C\c4ccc(OC(=O)c5ccco5)cc4)C(=O)N=C3S2)CC1	–	inconclusive: 17.8 µM [inhibitor, full curve]
Cc1cc(C)c(C(=O)/C=C/c2cccc3ccccc23)c(=O)[nH]1	–	inconclusive: 14.1 µM [inhibitor, partial curve]
COC(=O)c1ccccc1NC(=O)COC(=O)c1ccco1	–	inconclusive: 39.8 µM [inhibitor, partial curve, poor fit]
O=C1CC(=O)Nc2cc(S(=O)(=O)N3CCN(c4ccc([N+](=O)[O-])cc4)CC3)ccc2N1	–	inconclusive: 35.5 µM [inhibitor, full curve]
O=c1[nH]c(CN2CCN(S(=O)(=O)c3ccc4c(c3)OCCO4)CC2)nc2sc3c(c12)CCCC3	–	inconclusive: 89.1 µM [inhibitor, partial curve, poor fit]
COc1cc(-c2noc(-c3ccc(NC4CCCC4)c([N+](=O)[O-])c3)n2)cc(OC)c1OC	inactive: -17.7%	–
COc1ccc(C2C(C(=O)Nc3cccnc3)=C(C)Nc3nc(SCc4ccccc4)nn32)cc1 (configuration not stated)	inactive: -8.58%	–
C=CCc1cccc2cc(-c3nc4ccc(C(=O)O)cc4[nH]3)c(=O)oc12	–	inconclusive: 89.1 µM [inhibitor, single point]
C=CCc1cccc2cc(C(=O)Nc3ccc(S(=O)(=O)Nc4nnc(CC)s4)cc3)c(=O)oc12	–	active: 10 µM
COc1ccc(C(=O)O)cc1NS(=O)(=O)c1cccc2nsnc12	–	inconclusive: 28.2 µM [inhibitor, partial curve, poor fit]

SMILES	activity change, negative = inhibition	Potency
CN(CC#CC1(O)c2ccccc2-c2ccccc21)Cc1ccccc1	–	inconclusive: 112 µM [inhibitor, partial curve, poor fit]
CCCC1=C(C(=O)OCC)C(c2ccc(OC)c(CSc3ccccn3)c2)C(C#N)=C(N)O1 (configuration not stated)	–	inconclusive: 56.2 µM [inhibitor, partial curve, poor fit]
O=C(COC(=O)Cc1n[nH]c(=O)c2ccccc12)Nc1ncc(Cl)cc1Cl	–	active: 79.4 µM
Cc1ccc(C)c(/C=N/Nc2nc3ccccc3c(=O)n2O)c1	–	inconclusive: 56.2 µM [inhibitor, partial curve, poor fit]
CC(Sc1nnc(-c2cccs2)n1-c1ccccc1)C(=O)NCc1ccco1 (configuration not stated)	–	inconclusive: 5.01 µM [inhibitor, partial curve, poor fit]
CCOCCCn1c(SCC(=O)Nc2ccc(CC)cc2)nc2ccccc2c1=O	inactive: -19.1%	–
CCOC(=O)C1CCN(C(=O)C2CCN(S(=O)(=O)c3cc(Cl)ccc3OCC)CC2)CC1	inactive: -8.39%	–
O=C(CCl)N1N=C(c2cccs2)CC1c1ccco1 (configuration not stated)	–	inconclusive: 89.1 µM [inhibitor, single point]
O=C(Nc1nc(-c2ccco2)c(-c2ccco2)s1)C1CCC1	–	active: 25.1 µM
CCOc1ccc(C2C(C#N)=C(C)NC3=C2C(=O)c2ccccc23)cc1 (configuration not stated)	–	inconclusive: 8.91 µM [inhibitor, partial curve]
CCN(CC)C(=O)NC1CCCCCCC1	inactive: 1.5%	–
O=C(Nc1nc2ccccc2[nH]1)C1CCC1	–	inconclusive: 100 µM [inhibitor, single point]
Cc1ccc(Cn2c(CNC(=O)c3ccc(Cl)c([N+](=O)[O-])c3)nc3cccnc32)cc1	inactive: -18.9%	–
C[C@@H](C(=O)Nc1nc(-c2ccccn2)cs1)N1C(=O)C2CCCCC2C1=O (some centres not stated)	–	active: 12.6 µM
Cc1ccc(S(=O)(=O)Nc2ccccc2CNc2ncc(Br)cc2Br)cc1	–	inconclusive: 79.4 µM [inhibitor, partial curve, poor fit]
O=C(O)c1ccc(Nc2nc(-c3ccc([N+](=O)[O-])cc3)nc3ccccc23)cc1	–	inconclusive: 31.6 µM [inhibitor, single point]
CCOc1cc(/C=N/N=C2/NC(=O)C(CC(=O)O)S2)ccc1OCc1ccc(Cl)cc1 (configuration not stated)	–	inconclusive: 17.8 µM [inhibitor, partial curve, poor fit]
O=C(COC(=O)c1ccc(Cl)nc1)Nc1ncc(Cl)cc1Cl	–	active: 35.5 µM
COc1ccccc1NC(=O)Nc1nc(CC(=O)Nc2cc(F)ccc2F)cs1	–	inconclusive: 31.6 µM [inhibitor, partial curve]
CCN(CC)C(=O)CC(c1ccc(OC)cc1)c1c(OC)cc(OC)c2ccc(=O)oc12 (configuration not stated)	–	inconclusive: 15.8 µM [inhibitor, full curve]
CCOC(=O)c1c(C)[nH]c(C)c1S(=O)(=O)N1CCCC(C(=O)NCc2ccccc2Cl)C1 (configuration not stated)	inactive: -11.4%	–
Cc1ccc(O)c(N=Cc2cc(Cc3ccccc3)cc([N+](=O)[O-])c2O)c1	–	active: 79.4 µM
CCS(=O)(=O)c1ccc2oc(Nc3ccc(OC)cc3)nc2c1	inactive: -24.7%	–

SMILES	activity change, negative = inhibition	Potency
CC(C)[C@H](NS(=O)(=O)c1cccc(C(F)(F)F)c1)C(=O)OCC(=O)NC(=O)NCc1ccco1	–	inconclusive: 39.8 µM [inhibitor, single point]
COc1ccc(-c2[nH]n(-c3ccc([N+](=O)[O-])cc3)c(=O)c2C=NCc2ccncc2)cc1	–	inconclusive: 20 µM [inhibitor, full curve]
CCc1cccc(NC(c2ccccc2)c2nnc(-c3ccccc3F)o2)c1 (configuration not stated)	–	inconclusive: 79.4 µM [inhibitor, partial curve, poor fit]
O=C(NCc1ccco1)c1cc2cc3ccc(Cl)cc3nc2o1	–	inconclusive: 22.4 µM [inhibitor, partial curve]
CCOc1ccc(NC(=O)CNC(=O)c2nn(-c3ccc(OC)c(OC)c3)c(=O)c3ccccc23)cc1	inactive: -28%	–
CCOc1ccc(NC(=O)c2cc3ccccc3cc2O)cc1	–	inconclusive: 28.2 µM [inhibitor, full curve]
COc1ccc(C(=O)Nc2nnc(S(=O)(=O)N(C)c3ccc(C)cc3)s2)cc1	inactive: -7.15%	–
CCC(C)(c1nnnn1-c1c(C)cccc1C)N(N=O)c1cccc(C(F)(F)F)c1 (configuration not stated)	–	inconclusive: 89.1 µM [inhibitor, partial curve, poor fit]
COc1cccc(Nc2nc3ccccc3nc2NS(=O)(=O)c2cccs2)c1	inactive: 0.852%	–
O=[N+]([O-])c1ccc(-c2nn(-c3ccccc3)cc2/C=N/n2c(-c3ccncc3)n[nH]c2=S)cc1	inactive: -5.21%	–
CC1(C)CC(N=c2cc(-c3ccccc3)oc3ccc(Cl)cc23)CC(C)(C)N1	–	inconclusive: 28.2 µM [inhibitor, partial curve]
CCCc1cc(=O)oc2c(C)c3c(cc12)CN(CCc1ccc(Cl)cc1)CO3	inactive: -6.43%	–
OC(COc1cccc2ccccc12)CN1CCN(c2ccccc2)CC1 (configuration not stated)	–	inconclusive: 35.5 µM [inhibitor, single point]
COc1ccccc1NCC(=O)c1ccc(Cl)cc1	–	inconclusive: 11.2 µM [inhibitor, full curve, poor fit]
Cc1ccc(S(=O)(=O)N2CCN(C(=O)c3c(-c4ccccc4)noc3C)CC2)cc1C	–	inconclusive: 89.1 µM [inhibitor, partial curve, poor fit]
Cc1cc(C)c2oc(-c3ccc(C)c(NC(=O)/C=C/c4ccco4)c3)nc2c1	–	inconclusive: 79.4 µM [inhibitor, partial curve]
O=C(COc1ccc(Cl)cc1)NCC(c1ccco1)S(=O)(=O)c1ccc(Cl)cc1 (configuration not stated)	inactive: -0.178%	–
COC(=O)CCC/C=C1/SCC(NC(=O)c2ccccc2)C1=O (configuration not stated)	–	inconclusive: 25.1 µM [inhibitor, partial curve, poor fit]
O=c1c2ccccc2nc(-c2ccc(Cl)cc2)n1CCCOc1ccccc1F	inactive: -24.7%	–
Cc1ccc2c(c1)Oc1ccc(NC(=O)CCl)cc1C(=O)N2	–	active: 79.4 µM
Clc1ccc(-c2nc3n(n2)Cc2ccccc2-3)cc1	–	inconclusive: 25.1 µM [inhibitor, partial curve, poor fit]
